Laboratory results as given in PubChem BioAssay AID624296 (National Center for Advancing Translational Sciences (NCATS), 2012).
Out of some 350,000 compounds screened, about 9,900 (2.8%) were called active. Inconclusive results, whose numbers are uncertain, are shown with a selection of clear calls. The call rests on the fitted dose curve; in most records, active means well fitted activation curve with a large enough effect; inconclusive means small, poorly fitted or top-dose-only effect; inactive means no such curve, though single readings can be large or run the other way. No potency is given beside an inconclusive call; the fits are too rough.

Experiment: A quantitative high throughput screen for small molecules that induce DNA re-replication in MCF 10a normal breast cells. Further: nearly all actives have a fitted effect of over 50% in size. On activity, positive = re-replication: % of control where 0% means no effect.
Conditions: MCF 10A DNA re-replication, Hoechst nuclear intensity, 48 h; activity, positive = re-replication: at 46.1 µM (top of the series)
Potency means the concentration at half of the fitted maximal effect; tags describe the fitted curve by direction and shape.

Row | Compound | activity, positive = re-replication | Potency
1 | C=CCn1cc(C(=O)OC)c(=O)c2cc(S(=O)(=O)N3CCCCCC3)ccc21 | inactive: -0.0825% | 
2 | COc1ccc(C2=CC(c3cc(OC)c(OC)c(OC)c3)NC(=S)N2)cc1 (centres undefined) |  | inconclusive [activator, single point]
3 | CC(C)CN(C(=O)COC(=O)c1cc2c(s1)CCC2)C1CCS(=O)(=O)C1 (centres undefined) |  | inconclusive [activator, partial curve, poor fit]
4 | CCOc1ccccc1C=NNC(=O)CCCCC(=O)NN=Cc1ccccc1OCC | inactive: 16.3% | 
5 | CC(C)(c1ccccc1)c1ccc(OCCN2CCCC2)cc1 |  | inconclusive [activator, single point]
6 | CSc1nc(C)c(CCO)c(=O)[nH]1 |  | inconclusive [activator, partial curve, poor fit]
7 | O=C(CSc1nc2ccccc2c(=O)n1Cc1ccco1)NCc1ccco1 |  | inconclusive [activator, full curve, poor fit]
8 | COc1ccc(-c2nnn3c2nc(NCc2ccccc2)c2ccccc23)cc1 |  | active: 1.64 µM
9 | CCCCCCCCCCCCCCCCCCNc1ccn(C2OC(COP(=O)(O)OCC3OC(n4cc(F)c(=O)[nH]c4=O)CC3O)C(O)C2O)c(=O)n1 (centres undefined) |  | active: 10.3 µM
10 | CCCCNc1c(-c2ccc(OC)c(SC3CCCCC3)c2)nc2ccc(Cl)cn12 |  | active: 20.6 µM
11 | CC(C)Nc1nc(NC(N)=S)nc(NC(C)(C)C)n1 |  | inconclusive [activator, full curve]
12 | Cc1cc(C)c(S(=O)(=O)NC2CCN(Cc3ccccc3)CC2)c(C)c1 |  | inconclusive [activator, partial curve, poor fit]
13 | CCCC[C@@H]1CNC(=S)N1CCC12CC3CC(CC(C3)C1)C2 |  | active: 16.4 µM
14 | COCCCNCC(=O)Nc1ccc(OC(F)(F)F)cc1 |  | inconclusive [activator, single point]
15 | CN(C(=O)c1cccc(Nc2ccc(-c3ccc4c(c3)OCCO4)nn2)c1)C1CCCCC1 |  | inconclusive [activator, partial curve]
16 | COc1ccc(NC(=O)CN(C)CC(=O)Nc2cccc3ccccc23)c(OC)c1 | inactive: 1.41% | 
17 | COc1ccc(C(=O)Nc2ccc(S(=O)(=O)N3CCOCC3)cc2)cc1 | inactive: -0.696% | 
18 | COc1cc(/C=C2\SC(=S)N(Nc3ncc(C(F)(F)F)cc3Cl)C2=O)ccc1O |  | inconclusive [activator, single point]
19 | CN(C)CCOC(=O)C12CC3CC(CC(C3)C1)C2 | inactive: -17.5% | 
20 | COc1nc(NCCN2CCOCC2)nc(Nc2ccccc2)n1 | inactive: -16.8% | 
21 | Cc1ccc(NC(=O)COc2ccc(CCO)cc2-n2nc3ccccc3n2)cc1C |  | inconclusive [activator, single point]
22 | CCC(C)OC(=O)C[N+](C)(C)CCOC1CC2CCC1(C)C2(C)C (centres undefined) |  | inconclusive [activator, partial curve, poor fit]

Row | Compound | activity, positive = re-replication | Potency
23 | CCOc1ccc(S(=O)(=O)N2CCC(C(=O)NCc3ccco3)CC2)cc1C |  | inconclusive [activator, single point]
24 | Cc1onc(-c2c(Cl)cccc2Cl)c1C(=O)Nc1nc(C(C)(C)C)cs1 |  | inconclusive [activator, single point]
25 | CC(C)c1ccc(N2C(=O)/C(=C/N(C)C)SC2=S)cc1 |  | inconclusive [activator, partial curve, poor fit]
26 | O=c1ccc(/C=C/c2ccccc2)nn1Cc1ccc(F)cc1 |  | inconclusive [activator, single point]
27 | O=C1NC[C@H](c2ccccc2)OC(=O)[C@H](Cc2ccc(F)cc2)C/C=C\C[C@H]1CC(=O)N(CCO)Cc1ccccc1 |  | inconclusive [activator, single point]
28 | NN(Cc1ccccc1)C(=S)Nc1ccc(Cl)c(Cl)c1 | inactive: 1.17% | 
29 | CC(C)(C)c1nnc(NS(=O)(=O)c2cc(Cl)ccc2Cl)s1 |  | inconclusive [activator, single point]
30 | O=c1[nH]c2ccccc2n2c(=S)[nH]nc12 | inactive: -0.734% | 
31 | Cc1cc(C(=O)CC#N)c(C)n1-c1ccc(OC(F)F)cc1 |  | inconclusive [activator, partial curve, poor fit]
32 | Cn1c(=O)c2sccc2n2c(CCCC(=O)Nc3ccccc3)nnc12 |  | inconclusive [activator, single point]
33 | COC(=O)c1[nH]c2cc(OC)ccc2c1NC(=O)CCN1CCN(c2ccccc2)CC1 | inactive: 62.1% [at 0.0737 µM] | 
34 | O=c1cnn(Cc2ccc(Cl)c(Cl)c2)c2ccccc12 | inactive: 8.28% | 
35 | COc1ccc(Br)cc1/C=C\C(=O)NCc1cccnc1 |  | inconclusive [activator, full curve, poor fit]
36 | COc1ccc(NS(=O)(=O)c2ccc(C(=O)N(C)Cc3cccs3)cc2)cc1 |  | inconclusive [activator, full curve]
37 | Cc1cc(O)cc2c1C1CCC3(C)C(=O)CCC3C1C=C2 (centres undefined) | inactive: 11.2% | 
38 | COc1ccc(/C=C/C(=O)c2cc(Cl)ccc2O)c(OC)c1 |  | inconclusive [activator, partial curve, poor fit]
39 | COC(=O)c1c(NC(=S)Nc2cc(OC)c(Cl)cc2OC)sc2c1CCCCC2 |  | inconclusive [activator, single point]
40 | CC1CCN(S(=O)(=O)c2ccc(S(=O)(=O)NCc3cccnc3)cc2)CC1 |  | inconclusive [activator, partial curve, poor fit]
41 | Cc1ccc(N2C(=O)CSC2=S)cc1C |  | inconclusive [activator, partial curve, poor fit]
42 | COC(=O)/C(C#N)=C(/Nc1ccc(F)c(Cl)c1)C(F)(F)F |  | inconclusive [activator, partial curve, poor fit]
43 | OC1CCCN(c2c3c(nc4cc(-c5cccc(F)c5)nn24)CCCC3)C1 (centres undefined) | inactive: 26.7% | 
44 | CC(c1ccccc1C(O)c1ccccc1)N(C)C (centres undefined) | inactive: 2.85% | 
